Measurements published in PubChem BioAssay AID588855 (National Center for Advancing Translational Sciences (NCATS), 2011).
The campaign covered roughly 410,000 compounds. About 5,000 (1.2%) were called active. The inconclusive results got no clear call from the source; some entries with a clear call stand among them for comparison. Calls follow the shape of the dose curve; as a rule, active = well fitted inhibition curve with a large enough effect; inconclusive = small, poorly fitted or top-dose-only effect; inactive = no such curve, though single readings can be large or run the other way. Where the call is inconclusive, the potency comes from a doubtful curve fit.

Experiment: qHTS for Inhibitors of TGF-b; also: nearly all actives have a fitted effect of over 65% in size
Conditions: HepG2 CAGA-GFP TGF-b/SMAD3 reporter, GFP fluorescence, 18 h, TGF-beta stimulated, 500 pg/mL final; series mostly up to 46.1 µM
Procedure, shortened: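 Smad-responsive CAGA-GFP expression was quantified in HEPG2 cells exposed to compounds and 500 pg/mL final TGF-beta for 18 h at 37 degrees C; unstimulated wells defined full inhibition.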
Potency is read from the fitted curve at half-maximal effect; tags tell the direction and shape of the fitted curve.

**Q.** For `COC(=O)C1=C(c2ccc(OCc3ccccc3)cc2)C[C@@H]2CC[C@H]1N2C(=O)NC1CCN(Cc2ccccc2)CC1`, which Potency is on record?
**A.** Its Potency is inconclusive: 35.5 µM [inhibitor, single point].

**Q.** Which Potency does the source give for `CCCCCCCCCCCCn1ccc(=N)cc1` here?
**A.** Its Potency is active: 10 µM.

**Q.** Which Potency does the source give for `O=C1NCCOC(=O)[C@H](Cc2ccc(F)cc2)CC/C=C/C[C@H]1CC(=O)N(CCO)Cc1ccccc1` here?
**A.** The Potency was inconclusive: 14.1 µM [inhibitor, single point].

**Q.** For `O=C1NC(=O)C(CCc2ccccn2)(Cc2cccc(Cl)c2Cl)C(=O)N1c1ccc(Br)cc1` (stereo not drawn), which Potency is on record?
**A.** The Potency was inconclusive: 22.4 µM [inhibitor, single point].

**Q.** For `CN1C(=O)C(=Cc2c(OCc3cnc(Cl)s3)ccc3ccccc23)C(=O)N(C)C1=O`, which Potency is on record?
**A.** The Potency was inconclusive: 14.1 µM [inhibitor, partial curve, poor fit].

**Q.** For `CN1CCN(Cc2cc(C(C)(C)C)c(O)c(C(C)(C)C)c2)CC1`, which Potency is on record?
**A.** Its Potency is “inactive”.

**Q.** With `CCOP(=O)(OCC)C(Nc1cc(Cl)cc(Cl)c1)c1cccc(O)c1` (stereo not drawn) as the molecule, how does the Potency read?
**A.** Its Potency is inconclusive: 25.1 µM [inhibitor, single point].

**Q.** Which Potency does the source give for `COC(=O)C1=C(c2ccc(F)cc2OCc2ccccc2)C[C@@H]2CC[C@H]1N2C(=O)N1CCOCC1` here?
**A.** The Potency was inconclusive: 0.112 µM [inhibitor, full curve, poor fit].

**Q.** For `C/C(=N\N1CCCCCC1)c1c(O)n(-c2ccccc2)c(=O)[nH]c1=O`, which Potency is on record?
**A.** Its Potency is inconclusive: 35.5 µM [inhibitor, single point].

**Q.** With `O=C1NCN(c2ccccc2)C12CCN(C(c1cccc3ccccc13)c1nnnn1-c1ccc3c(c1)OCCO3)CC2` (stereo not drawn) as the molecule, how does the Potency read?
**A.** Its Potency is inconclusive: 12.6 µM [inhibitor, partial curve, poor fit].

**Q.** Which Potency does the source give for `CNC(=O)Oc1cccc2c1OC(C)(C)O2` here?
**A.** Its Potency is “inactive”.

**Q.** For `Cc1ccccc1NC(=O)COC(=O)c1cc(C)n(C2CC2)c1C`, which Potency is on record?
**A.** Its Potency is “inactive”.

**Q.** Which Potency does the source give for `Cc1ccc(S(=O)(=O)NC(Cc2cnc[nH]2)C(=O)O)cc1` (stereo not drawn) here?
**A.** Its Potency is inconclusive: 0.112 µM [inhibitor, full curve, poor fit].

**Q.** With `COc1cc(OC)c(OC)cc1CNCCc1ccc(OC)c(OC)c1` as the molecule, how does the Potency read?
**A.** Its Potency is inconclusive: 7.08 µM [inhibitor, full curve].

**Q.** With `NS(=O)(=O)c1cc(C2(O)NC(=O)c3ccccc32)ccc1Cl` (stereo not drawn) as the molecule, how does the Potency read?
**A.** The Potency was “inactive”.

**Q.** With `CCOc1ccc(-c2cc(C)[n+](CCc3ccc(OC)c(OC)c3)c(-c3ccc(OCC)cc3)c2)cc1` as the molecule, how does the Potency read?
**A.** The Potency was inconclusive: 12.6 µM [inhibitor, partial curve, poor fit].

**Q.** Which Potency does the source give for `CCCCCCOC(=O)c1ccccc1N` here?
**A.** Its Potency is “inactive”.

**Q.** Which Potency does the source give for `CC(C)(C)c1cc([N+](=O)[O-])cc(C(C)(C)C)c1O` here?
**A.** Its Potency is active: 7.94 µM.

**Q.** For `Cc1ccccc1-c1nc(CS(=O)CC(=O)N2CCN(c3cc(Cl)ccc3C)CC2)c(C)o1` (stereo not drawn), which Potency is on record?
**A.** Its Potency is inconclusive: 7.94 µM [inhibitor, partial curve].

**Q.** Which Potency does the source give for `CC(=O)C1=C(O)C2(C)c3c(O)c(C)c(O)c(C(C)=O)c3OC2CC1=O` (stereo not drawn) here?
**A.** Its Potency is inconclusive: 22.4 µM [inhibitor, single point].

**Q.** For `CSC1=NP(=S)(SC)N(C)c2nc3n(c21)CCC3` (stereo not drawn), which Potency is on record?
**A.** The Potency was inconclusive: 6.31 µM [inhibitor, single point].

**Q.** Which Potency does the source give for `COc1ccccc1CN1CCN(C(=O)COc2ccccc2)CC1` here?
**A.** Its Potency is “inactive”.

**Q.** With `COc1ccccc1C1Nc2ccccc2-n2c(-c3ccccc3)c3c(=O)n(C)c(=O)n(C)c3c21` (stereo not drawn) as the molecule, how does the Potency read?
**A.** The Potency was inconclusive: 15.8 µM [inhibitor, partial curve, poor fit].

**Q.** With `CCCNC(=O)N1[C@H]2CC[C@@H]1C(C(=O)OC)=C(c1ccc(-c3ccccc3)c(F)c1)C2` as the molecule, how does the Potency read?
**A.** Its Potency is inconclusive: 0.112 µM [inhibitor, full curve, poor fit].

**Q.** Which Potency does the source give for `CCCCCCCSc1cc(OC)c(CCN(C)C)cc1OC` here?
**A.** The Potency was inconclusive: 20 µM [inhibitor, single point].

**Q.** With `CN1CC[C@@]2(C)c3cc(O)ccc3N(C)[C@@H]12` as the molecule, how does the Potency read?
**A.** The Potency was inconclusive: 35.5 µM [inhibitor, single point].

**Q.** For `COc1ccc(C(=O)N2CCC3(CC2)OCCO3)cc1`, which Potency is on record?
**A.** The Potency was “inactive”.

**Q.** Which Potency does the source give for `COc1cc(C2SCC(=O)Nc3c2c(=O)[nH]n3C2CCCCCC2)cc(OC)c1OC` (stereo not drawn) here?
**A.** The Potency was inconclusive: 14.1 µM [inhibitor, partial curve, poor fit].

**Q.** With `S=C=Nc1ccccn1` as the molecule, how does the Potency read?
**A.** The Potency was inconclusive: 3.55 µM [inhibitor, full curve, poor fit].

**Q.** Which Potency does the source give for `c1ccc(C2c3ccccc3-n3nncc3CN2CC2CCCCC2)cc1` (stereo not drawn) here?
**A.** The Potency was active: 11.2 µM.

**Q.** Which Potency does the source give for `COC(=O)C1=C(c2cc3ccccc3s2)C[C@@H]2CC[C@H]1N2C(=O)NC1CCCCC1` here?
**A.** The Potency was inconclusive: 22.4 µM [inhibitor, single point].

**Q.** Which Potency does the source give for `Cc1cc(N2CCCCC2)ccc1C=C1C(=O)N(C)C(=S)N(C)C1=O` here?
**A.** Its Potency is inconclusive: 35.5 µM [inhibitor, single point].

**Q.** With `Oc1cccc2nc3ccccc3nc12` as the molecule, how does the Potency read?
**A.** The Potency was inconclusive: 11.2 µM [inhibitor, single point].
